This is an account of results in PubChem BioAssay AID1347073 (National Center for Advancing Translational Sciences (NCATS), 2019).

The whole screen tested about 45,000 compounds, of which about 200 (0.44%) were called active. Roughly 7% stayed inconclusive and do not appear here. The call rests on the fitted dose curve; in most records, active means well fitted activation curve with a large enough effect; inconclusive means small, poorly fitted or top-dose-only effect; inactive means no such curve, though single readings can be large or run the other way. This is one part of the list.

The experiment is described as follows: qHTS of TDP-43 Inhibitors: NCGC Sytravon Library Screen. Further: 0% is about no effect; nearly all actives have a fitted effect of over 55% in size. The following applies: yeast TDP-43 toxicity rescue, BacTiter-Glo growth, 24 h; series mostly up to 46.1 µM; growth rescue (activation): at the top concentration. The method in brief: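 TDP-43-expressing yeast, pregrown in raffinose, seeded at OD600 0.02 in galactose medium with compound for 24 hr at 30 deg C. Growth read by BacTiter-Glo luminescence, so rescue of toxicity appears as activation.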
In the case of `COCCNC(=O)C1(C)CCN(Cc2ccccc2C#N)C1` (centres undefined), the “growth rescue (activation)” value is inactive: -14.4%.
Take `C=CCOc1ccc(Br)cc1CNCCO`: the “growth rescue (activation)” value was inactive: 1.83%.
The result for `Cc1ccc2ccccc2c1C(O)c1ncc(-c2ccccc2F)[nH]1` (centres undefined) reads inactive: 19.8%.
The result for `O=c1cn[nH]c2ccccc12` reads inactive: 20.4%.
In the case of `C=CCOC(=O)C1=C(C)NC(SCC(N)=O)=C(C#N)C1c1cccs1` (centres undefined), the “growth rescue (activation)” value was inactive: -6.27%.
As for `COc1ccc(CN(C(=O)CCC(=O)N2CCCCC2)c2nccs2)cc1OC`, the figure is inactive: 0.087%.
As for `COc1ccc(CCC(=O)NNC(=O)c2cc(Cl)ccc2OC)cc1OC`, the figure is inactive: 20.7%; as for `O=Cc1cn(CC(O)CN2CCCCC2)c2ccccc12` (centres undefined), inactive: 10.5%; as for `COc1ccc(N2C(=O)/C(=C\c3ccco3)N=C2SCC(N)=O)cc1Cl`, inactive: 11.4%.
`COc1cc(OC)cc(C(=O)NC(C(=O)N2CCC2)C(C)C)c1` (centres undefined): the “growth rescue (activation)” value is inactive: -1.19%.
Take `COc1ccc(N(C)S(=O)(=O)c2cccc3nsnc23)cc1`: the “growth rescue (activation)” value was inactive: 21.5%.
As for `Cc1oc(-c2ccccc2)cc1C(=O)Nc1ccccc1`, the figure is inactive: -3.27%; as for `CC1CC(CCC(=O)NC(=S)Nc2ccc(S(N)(=O)=O)cc2)C(=O)O1` (centres undefined), inactive: 2.63%; as for `COc1ccc(-n2cnnc2)cc1`, inactive: -7.16%.
Take `COc1ccc(OC)c(NC(=O)c2ccccc2NC(=O)c2ccco2)c1`: the “growth rescue (activation)” value is inactive: 18.4%.
The result for `CC1Oc2ccccc2N(CC(=O)NC2CCCC2)C1=O` (centres undefined) reads inactive: 8.45%.
Turning to `C/C(CC(=O)Nc1cc(Cl)ccc1Cl)=N\NC(=O)COc1cccc(C)c1`, the “growth rescue (activation)” value is inactive: 9.32%.
As for `CN(C)CCNC(=O)COc1ccc(Cl)cc1Cl`, the “growth rescue (activation)” value is inactive: 18.7%.
The result for `Cc1cccc(Nc2nnc(-c3ccc(N4CCOCC4)c([N+](=O)[O-])c3)c3ccccc23)c1` reads inactive: 4.54%; that for `Cc1cccc(C)c1OCc1cc(C(=O)N2CCN3CCCC3C2)no1` (centres undefined), inactive: 7.68%.
For `O=C(CSc1nnnn1-c1cccc2ccccc12)NC(C(=O)O)(c1ccccc1)c1ccccc1`, the “growth rescue (activation)” value is inactive: 11.7%.
As to `CC(C)c1ccc(NC(=O)CSc2ncccc2C(=O)Oc2cccc([N+](=O)[O-])c2)cc1`, the “growth rescue (activation)” value is inactive: 5.58%.
As for `Cc1ccc(N2NC(=O)/C(=C/c3ccc(-c4ccc(Cl)c(C(=O)O)c4)o3)C2=O)cc1`, the figure is inactive: -7.76%; as for `Cc1[nH]c2ccccc2c1C(=O)CSc1ccccn1`, inactive: 1.27%.
The result for `O=S(=O)(c1ccccc1)c1nc(-c2ccco2)oc1N1CCCCC1` reads inactive: 11.1%; that for `CC(C)C(N)c1csc(NC(=O)Nc2ccc(OC(F)(F)F)cc2)n1` (centres undefined), inactive: 22.3%; that for `COC(=O)C1=C(C)NC(C)=C(C(=O)OC)C1c1ccc(C)o1`, inactive: 5.3%.
Consider `Cc1cccc(NC(=O)CCn2c(=O)oc3ccccc32)c1`, for which the “growth rescue (activation)” value is inactive: 22.3%.
The result for `N#Cc1c2c(c(Nc3ccccc3)n3c1nc1ccccc13)CCC2` reads inactive: 27%.
As for `COc1ccc(/C=C/C(=O)NC2CCCCCCC2)cc1S(=O)(=O)N1CCOCC1`, the figure is inactive: 6.72%; as for `CC1CCN(S(=O)(=O)c2ccc3c(c2)CCN3C(=O)Nc2ccc(Br)cc2)CC1`, inactive: -0.404%.
The result for `COc1cccc(NC(=O)C2C3C=CC(C3)C2C(=O)O)c1` (centres undefined) reads inactive: 9.48%; that for `Cc1ccc(C)c(NC(=O)CN(C)C(=O)c2ccc(Cl)nc2)c1`, inactive: -8.65%.
Consider `O=c1ccc(-c2n[nH]c(=S)n2-c2ccc(F)c(Cl)c2)n[nH]1`, for which the “growth rescue (activation)” value was inactive: 3%.
The result for `CCCCNC(=O)N1c2ccccc2CC1C` (centres undefined) reads inactive: 15%; that for `COCCC(=O)N1CCCC(C(=O)c2ccccc2SC)C1` (centres undefined), inactive: -0.176%.
The result for `CC1CC(C)CN(S(=O)(=O)N2CCC(C(=O)NCCC3=CCCCC3)CC2)C1` (centres undefined) reads inactive: 9.93%; that for `Cc1nn(-c2ccccc2)c2sc(C(=O)n3cccn3)cc12`, inactive: 17.2%.
Consider `CCCCNC(=O)C1(C)CCCCN1C(=O)c1cncc(Br)c1` (centres undefined), for which the “growth rescue (activation)” value is inactive: 6.23%.
As for `COc1ccc2[nH]cc(CCNC(=O)c3ccccc3Cl)c2c1`, the figure is inactive: 16.6%; as for `Cc1ccc(C2(C)NC(=O)N(CC(=O)N3CC(=O)Nc4ccccc43)C2=O)cc1` (centres undefined), inactive: -6.15%.
The result for `c1ccc(COc2cccc(CNCc3cccs3)c2)cc1` reads inactive: 5.38%; that for `Cc1ccc(C(=O)CCC(=O)OCC(=O)N2c3ccccc3NC(=O)C2(C)C)cc1`, inactive: 4.08%; that for `CC(C(=O)Nc1ccccc1-c1ccccc1)N1CCN(C(=O)c2ccccc2)CC1` (centres undefined), inactive: -10.1%.
As for `O=[N+]([O-])c1ccc(O)c(/C=N/Nc2ccc(Cl)nn2)c1`, the figure is inactive: 2.43%; as for `O=C(COC(=O)c1n[nH]c2ccccc12)NC(=O)NC1CCCC1`, inactive: 5.49%; as for `Cc1c(/C=N/NC(=O)c2cc(Br)ccc2O)c(=O)n(C)c(=O)n1C`, inactive: -1.95%.
Turning to `CC1=C(C(=O)N2CCN(c3cccc(C)c3C)CC2)C2(CCCCC2)OC1=O`, the “growth rescue (activation)” value is inactive: 22.5%.
With `CCOC(=O)c1[nH]c(C)c(/C(O)=C2\C(=O)C(=O)N(CCN(C)C)C2c2ccncc2)c1C` (centres undefined), the “growth rescue (activation)” value is inactive: -13.5%.
With `CCOc1cc2c(cc1OCC)C(c1ccc(C(=O)O)cc1)NCC2` (centres undefined), the “growth rescue (activation)” value was inactive: 4.48%.
The result for `COc1cccc(CN2CCNC(=O)C2CC(=O)NCc2cc(C(C)C)no2)c1` (centres undefined) reads inactive: 15.7%.
`O=C(NC(Cc1ccccc1)C(=O)OCC(=O)N1CCc2ccccc21)c1ccco1` (centres undefined): the “growth rescue (activation)” value is inactive: 21%.
The result for `Cc1cc(C(=O)OCC(=O)Nc2ccc(F)cc2[N+](=O)[O-])c2ccccc2n1` reads inactive: 9.63%; that for `O=C(NCc1ccccc1Cl)C1CCN(S(=O)(=O)c2ccc(F)cc2)CC1`, inactive: 7.26%.
For the compound `O=c1c(C=NCc2cccnc2)c(C(F)(F)F)[nH]n1-c1nc2ccccc2s1`, the “growth rescue (activation)” value is inactive: -12.6%.
As for `Cc1cccc(CN2CCC(CNC(=O)CSc3cc(=O)n(C)c4cc(Cl)ccc34)CC2)c1`, the figure is inactive: 4.96%.
`CCOc1ccc(N(CC(=O)NC2CCCC2)S(=O)(=O)c2ccccc2)cc1`: the “growth rescue (activation)” value is inactive: 22.9%.
The result for `COc1ccc(C)cc1Nc1nc(C)nc2sc(C)cc12` reads inactive: 14.4%; that for `COc1ccc(-n2cccc2C=O)cc1`, inactive: 15.2%; that for `CC1CCCN(S(=O)(=O)c2ccc(S(=O)(=O)N3CCCC3)cc2)C1` (centres undefined), inactive: 11.2%.
For the compound `Cc1ccc(C2Nc3ccccc3NC3=C2C(=O)CC(C)(C)C3)c(O)c1` (centres undefined), the “growth rescue (activation)” value is inactive: 1.72%.
As for `CC(=O)c1ccc(NC(=O)C(C)OC(=O)c2ccc(NS(=O)(=O)c3ccc(F)c(F)c3)cc2)cc1` (centres undefined), the figure is inactive: 14.4%; as for `O=C(O)COc1ccccc1/C=N/NC(=O)CN1CCN(S(=O)(=O)c2ccc(Br)cc2)CC1`, inactive: 22.4%; as for `CC(C)(C)C(=O)Nc1nnc(CC(=O)NCc2ccccc2)s1`, inactive: -5.45%.
With `CCNc1ccccc1CP(=O)(c1ccccc1)c1ccccc1O` (centres undefined), the “growth rescue (activation)” value was inactive: -22.9%.
The result for `CS(=O)(=O)N(CC(=O)N/N=C/c1ccccc1C(=O)O)c1cccc(Cl)c1Cl` reads inactive: -8.47%; that for `CN(C)c1cnn(-c2ccccc2)c(=O)c1Cl`, inactive: 14.3%; that for `Cc1cc(C(=O)NCC(=O)Nc2ccc(F)c(F)c2)c(C)o1`, inactive: 28.2%.
As to `Cc1ccc(/C=C2/SC(=S)N(CCCC(=O)Nc3ccc(O)cc3)C2=O)cc1`, the “growth rescue (activation)” value is inactive: 18.2%.
